The GPR68 mutational scans of Howard et al. (2025)
The least precise scores are not listed. Two further conditions of the source, in which the scores hardly spread, are not listed. Names with del lack the residues named; names with ins carry added residues between the positions named. For some of these results: The data file names ogerin without a concentration.

B1: GPR68, Q15743 (parent)
chain: MGNITADNSSMSCTIDHTIHQTLAPVVYVTVLVVGFPANCLSLYFGYLQIKARNELGVYLCNLTVADLFYICSLPFWLQYVLQHDNWSHGDLSCQVCGILLYENIYISVGFLCCISVDRYLAVAHPFRFHQFRTLKAAVGVSVVIWAKELLTSIYFLMHEEVIEDENQHRVCFEHYPIQAWQRAINYYRFLVGFLFPICLLLASYQGILRAVRRSHGTQKSRKDQIQRLVLSTVVIFLACFLPYHVLLLVRSVWEASCDFAKGVFNAYHFSLLLTSFNCVADPVLYCFVSETTHRDLARLRGACLAFLTCSRTGRAREAYPLGAPEASGKSGAQGEEPELLTKLHPAFQTPNSPGSGGFPTGRLA

Experiments:
[1] = variants of: B1; test: cAMP reporter score (Enrich2 score, wild type = 0); higher = more signal; HEK293T, FACS bins
[2] = variants of: B1; test: surface expression score (Enrich2 score, wild type = 0); higher = more signal; HEK293T, FACS bins

Variant	cAMP reporter score ([1]; pH 5.5)	cAMP reporter score ([1]; pH 6)	cAMP reporter score ([1]; pH 6, modulator: ogerin)	cAMP reporter score ([1]; pH 6.5, modulator: ogerin)	surface expression score [2]
T5D	0.9	-0.77	0.827	0.339	-0.288
D16_T18del	-1.12	-0.528	-1.03	-1.02	-1.45
S12_C13del	-1.29	-0.883	-0.696	-0.752	-1.56
H17M	-0.51	-0.401	-0.718	-0.895	0.264
H17C	-0.048	-0.444	-0.626	-0.787	-0.715
H17N	-0.174	-0.556	-0.446	-0.567	0.31
H17I	0.058	-1.02	0.257	-0.516	0.429
H17Q	-0.04	-0.846	-0.802	-0.932	-0.2
H17P	1.34	-0.274	-0.326	0.238	0.183
H17L	-0.508	-0.84	-0.962	-0.923	0.016
H17D	-0.365	-0.653	-1.73	-1.41	-0.494
H17G	-0.173	-1.17	-1.31	-0.818	0.238
H17R	0.466	-0.44	0.512	0.166	0.69
H17V	-0.138	-0.474	-0.341	-1.03	0.306
H17A	-0.309		-0.424	-0.944	0.042
H17K	0.482	1.22	0.945	2.18	1.22
H17E	-0.984	-1.66	-1.88	-1.06	-0.651
H17F	-0.754	-1.47	-1.17	-0.502	1.34
H17S	0.541	-1	0.801	0.05	1.31
H17T	0.921	0.287	1.4	0.517	1.45
I15E	-1.81	-0.778	-2.03	-1.35	-1.22

Variant	cAMP reporter score ([1]; pH 5.5)	cAMP reporter score ([1]; pH 6)	cAMP reporter score ([1]; pH 6, modulator: ogerin)	cAMP reporter score ([1]; pH 6.5, modulator: ogerin)	surface expression score [2]
I15Y	-0.592	-0.553	-0.816	-0.243	0.382
I15G	-0.781	0.006	-1.6	-0.809	-0.688
I15D	-1.3	-0.389	-1.01	-0.897	-1.51
I15Q	-0.376	-0.457	-0.479	-0.879	-0.581
I15L	-1.02	0.03	-0.989	-0.47	0.096
I15V	-0.337		-0.132	1.67	-0.877
I15H	-0.815	-1.43	-0.839	-0.678	1.47
I15A	0.932	-0.71	0.492	-0.251	0.342
I15C	-0.401	0.103	-0.525	-0.212	-1.1
I15T	0.135	-0.532	-0.253	-0.463	-0.431
I15R	0.052	-0.391	-0.623	-0.544	-0.389
I15N	-0.584	-0.203	-0.704	-1.21	0.275
I15K	-0.664	-0.563	-1.06	-0.974	-0.739
I15P	0.354	3.62	0.526	2.9	-0.348
I15S	-0.303	-0.774	0.253	0.142	-0.096
I15M	-0.308	-0.722	-0.348	-1.26	-0.053
I15F	-1.77	-1.27	-1.16	-1.19	0.86
I15W	-0.682	-0.172	-0.606	-0.346	0.135
G2_I4del	0.492	0.322	0.427	0.34	-0.444
S12D	0.324	-0.852	0.16	-0.129	0.416
S12N	-0.205	-0.478	-0.488	0.016	0.028

Variant	cAMP reporter score ([1]; pH 5.5)	cAMP reporter score ([1]; pH 6)	cAMP reporter score ([1]; pH 6, modulator: ogerin)	cAMP reporter score ([1]; pH 6.5, modulator: ogerin)	surface expression score [2]
S12C	-0.302	-1.17	-0.619	-0.482	-0.823
S12Q	0.547	-0.575	0.547	0.269	1.56
S12F	0.663	1.73	1.28	2.14	1.12
S12R	0.228	-0.046	0.695	1.02	0.785
S12Y	0.584	1.96	1.11	1.65	0.755
S12K	-0.183	0.548	-0.053	0.628	1.06
S12M	1.87	2.72	1.86	2.63	1.61
S12E	-0.425	-0.492	-0.287	-0.549	-0.344
S12P	-0.036	-0.693	-0.254	0.016	-0.042
S12I	0.328		0.776	0.376	0.652
S12A	0.353	0.028	0.323	0.176	0.408
S12V	1.42	0.554	1.7	1.64	1.29
S12H	0.366	-0.128	0.54	0.394	0.675
S12G	0.409	0.137	0.203	-0.198	0.024
S12W	1.9	2.63	2.15	4.37	2.36
S12L	-0.8	-1.19	-0.995	0.374	-1.02
S12T	0.794	1.5	-0.076	0.408	0.924
T5_A6insGSG	0.413		0.31	0.236	0.766
T5del	-0.205	1.03	-0.252	-0.255	-1.18
